Measurements taken from the DeepSol protein solubility set.

Experiment: soluble on expression in E. coli; label from the status in PepcDB or PDB records

MGSDKIHHHHHHMAAPVVAPPGVVVSRANKRSGAGPGGSGGGGARGAEEEPPPPLQAVLVADSFDRRFFPISKDQPRVLLPLANVALIDYTLEFLTATGVQETFVFCCWKAAQIKEHLLKSKWCRPTSLNVVRIITSELYRSLGDVLRDVDAKALVRSDFLLVYGDVISNINITRALEEHRLRRKLEKNVSVMTMIFKESSPSHPTRCHEDNVVVAVDSTTNRVLHFQKTQGLRRFAFPLSLFQGSSDGVEVRYDLLDCHISICSPQVAQLFTDNFDYQTRDDFVR[gap - about 20 residues]VSNLHMYSAVCADVIRRWVYPLTPEANFTDSTTQSCTHSRHNIYRGPEVSLGHGSILEENVLLGSGTVIGSNCFITNSVIGPGCHIGDNVVLDQTYLWQGVRVAAGAQIHQSLLCDNAEVKERVTLKPRSVLTSQVVVGPNITLPEGSVISLHPPDAEEDEDDGEFSDDSGADQEKDKVKMKGYNPAEVGAAGKGYLWKAAGMNMEEEEELQQNLWGLKINMEEESESESEQSMDSEEPDSRGGSPQMDDIKVFQNEVLGTLQRGKEENISCDNLVLEINSLKYAYNVSLKEVMQVLSHVVLEFPLQQMDSPLDSSRYCALLLPLLKAWSPVFRNYIKRAADHLEALAAIEDFFLEHEALGISMAKVLMAFYQLEILAEETILSWFSQRDTTDKGQQLRKNQQLQRFIQWLKEAEEESSEDD
soluble on expression in E. coli: not soluble
